Hit rate of the full screen: of about 310,000 compounds, about 14,000 (4.5%) showed an effect of 50% or more. Effects have a minus sign here. Some of the results follow.
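Note: peak tail current of the secondary pulse compared with the same well before compound.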

Chain of human ether-à-go-go-related gene (hERG) potassium channel (Q12809 whole entry, looked up): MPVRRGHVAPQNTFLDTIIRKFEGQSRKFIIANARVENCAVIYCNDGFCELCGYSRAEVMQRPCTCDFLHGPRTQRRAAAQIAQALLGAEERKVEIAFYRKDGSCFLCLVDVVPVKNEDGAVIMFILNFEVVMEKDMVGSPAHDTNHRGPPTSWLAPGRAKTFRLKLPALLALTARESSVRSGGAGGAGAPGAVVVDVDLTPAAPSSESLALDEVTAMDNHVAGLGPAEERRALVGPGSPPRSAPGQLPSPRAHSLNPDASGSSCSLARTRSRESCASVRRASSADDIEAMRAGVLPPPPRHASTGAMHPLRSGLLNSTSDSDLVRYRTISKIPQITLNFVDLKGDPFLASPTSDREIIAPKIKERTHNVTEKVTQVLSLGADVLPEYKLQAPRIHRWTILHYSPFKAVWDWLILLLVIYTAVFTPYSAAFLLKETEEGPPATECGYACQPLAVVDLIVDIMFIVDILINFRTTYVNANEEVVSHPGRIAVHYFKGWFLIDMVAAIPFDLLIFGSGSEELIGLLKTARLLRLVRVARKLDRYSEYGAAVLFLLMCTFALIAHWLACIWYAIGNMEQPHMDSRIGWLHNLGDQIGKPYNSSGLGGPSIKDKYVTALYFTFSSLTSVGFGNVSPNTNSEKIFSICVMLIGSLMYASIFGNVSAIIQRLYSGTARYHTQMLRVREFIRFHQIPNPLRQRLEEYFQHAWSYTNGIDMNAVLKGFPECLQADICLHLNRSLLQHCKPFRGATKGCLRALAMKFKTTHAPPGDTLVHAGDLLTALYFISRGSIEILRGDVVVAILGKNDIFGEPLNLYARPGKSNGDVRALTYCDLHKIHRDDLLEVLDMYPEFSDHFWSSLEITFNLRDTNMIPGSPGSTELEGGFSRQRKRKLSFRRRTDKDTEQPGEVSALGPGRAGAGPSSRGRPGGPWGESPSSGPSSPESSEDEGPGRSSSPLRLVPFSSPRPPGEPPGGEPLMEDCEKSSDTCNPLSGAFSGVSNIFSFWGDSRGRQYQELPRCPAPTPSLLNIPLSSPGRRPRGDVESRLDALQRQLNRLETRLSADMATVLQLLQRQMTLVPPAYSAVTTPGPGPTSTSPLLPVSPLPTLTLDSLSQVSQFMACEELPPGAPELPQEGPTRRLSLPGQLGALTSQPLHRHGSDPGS

This experiment concerns the target human ether-à-go-go-related gene (hERG) potassium channel (human, UniProt Q12809). Description: primary screen, population patch clamp on CHO cells stably expressing hERG.
With `CC(=O)Nc1ccc(S(=O)(=O)NC(CC(=O)NCCCN2CCOCC2)C(C)C)cc1` (centres unmarked), the “hERG current change (%, negative = inhibition) at 10uM” value came to 3.74%.
To `Cc1ccc(S(=O)(=O)N(Cc2cccnc2)Cc2cc3ccccc3[nH]c2=O)cc1` belongs -19.5%; to `O=C(NCc1ccccc1)C(c1ccc(Cl)cc1)N(C(=O)c1csnn1)C1CC1` (centres unmarked), 1.5%; to `O=C(CSc1ccccc1C(=O)O)NCc1ccc(Cl)cc1`, -8.22%.
Turning to `O=C(CSc1ccc(Cl)cc1)Nn1cnnc1`, the “hERG current change (%, negative = inhibition) at 10uM” value was 3.38%.
The result for `Cc1ccc(CC(NC(=O)c2ccccc2)C(=O)NC(C)C(=O)O)cc1` (centres unmarked) reads 8.14%; that for `COc1cc(-c2ccc(NC(C)=O)c(OC)c2)ccc1NC(C)=O`, -2.32%.
Regarding `COc1ccc(Nc2nc3ccccc3nc2-n2nc(C)cc2C)cc1`, the “hERG current change (%, negative = inhibition) at 10uM” value was 2.07%.
Turning to `O=C(NCC1CCCO1)C1CCN(S(=O)(=O)c2cc(Cl)ccc2Cl)CC1` (centres unmarked), the “hERG current change (%, negative = inhibition) at 10uM” value is given as -19%.
The result for `CCOc1cc(C(=O)NN=C2CCCC2)cc(OCC)c1OCC` reads 23.6%; that for `CCCN(CCC)CCCNC(=S)Nc1ccc2nc3n(c(=O)c2c1)CCCCC3`, 6.36%; that for `CCCC1(c2ccccc2)NC(=O)N(CC(=O)Nc2ccccc2C(F)(F)F)C1=O` (centres unmarked), -28.3%.
To `COC(=O)c1ccc(S(=O)(=O)N(C2CCCCC2)C2CCCCC2)n1C` belongs 5.85%; to `COc1cc([N+](=O)[O-])ccc1-c1ccc(/C=N/NC(=O)OC(C)(C)C)o1`, 16.8%.
The result for `COc1ccc2c(c1)C(=O)N(CCc1ccc(S(=O)(=O)NC(=O)NC3CCCCC3)cc1)C(=O)C2(C)C` reads -2.96%; that for `O=C(Cn1ncc2c(=O)oc3ccccc3c21)NC1CC1`, 9.98%; that for `O=C(O)c1cc(N/N=C/c2cccnc2)ccc1Cl`, -15.3%.
On to `COc1cccc(C(=O)COC(=O)C(C)N2C(=O)C3C4C=CC(C4)C3C2=O)c1` (centres unmarked), for which the “hERG current change (%, negative = inhibition) at 10uM” value is -9.71%.
The result for `O=C(O)c1c(F)c(F)c(F)c(F)c1-c1ccc(Cl)cc1` reads 8.99%; that for `COC(=O)C1=C(c2ccc3ccccc3c2)C[C@@H]2CC[C@H]1N2C(=O)N1CCOCC1`, 2.41%.
To `O=C(O)CCC(=O)N1CCc2cc(S(=O)(=O)N3CCCCC3)ccc21` belongs 7.86%; to `COc1cc2c(cc1OC)CN(C1CC(=O)N(c3c(C)cccc3C)C1=O)CC2` (centres unmarked), 17.1%; to `Cc1cc(=O)oc2cc(OCC(=O)NCc3ccncc3)ccc12`, -10.2%.
To `CCCOc1cccc(C(=O)NC(=S)Nc2cccc(C(F)(F)F)c2)c1` belongs 15.1%; to `CCSc1nnc(-c2cc(Br)ccc2NC(C)=O)c(=O)[nH]1`, -20.2%.
As for `COc1cc(NC(=O)COC(=O)c2cc(S(=O)(=O)N3CCCCC3)ccc2Cl)c(C)cc1[N+](=O)[O-]`, the “hERG current change (%, negative = inhibition) at 10uM” value is listed as 2.66%.
To `COc1cc2c(cc1OC)C(c1ccccc1)NC(C)(C)C2.Cl` (centres unmarked) belongs 6.51%; to `COc1ccccc1NC(=O)CCN1C(=O)/C(=C\c2cc(OC)c(OC)c(OC)c2)SC1=S`, 16.8%.
The result for `COc1ccc(Cc2nc3ccc(C(=O)NC(C)Cc4ncccc4C)cc3o2)cc1OC` (centres unmarked) reads 2.69%; that for `Cc1c(NC(=O)C(C)Sc2ccc3ccccc3n2)c(=O)n(-c2ccccc2)n1C` (centres unmarked), -8.22%.
The result for `O=C(NCc1ccncc1)NC1CCCCC1` reads 20.6%.
With `C=CCN1C(=O)CN=C1Nc1ccccc1`, the “hERG current change (%, negative = inhibition) at 10uM” value is reported as 20.4%.
The result for `COCCCN1C(=O)C(O)=C(C(=O)c2ccco2)C1c1ccccc1` (centres unmarked) reads 21.3%; that for `Cc1cc(S(=O)(=O)Nc2c(C)nn(C)c2C)c(Cl)cc1Cl`, 1.91%.
The result for `CSCCC(Nc1nc2ccccc2s1)C(=O)O` (centres unmarked) reads 14.7%.
To `C/C(=N/NC(=O)CN(c1ccccc1)S(=O)(=O)c1ccccc1)c1ccccc1O` belongs -6.6%; to `COc1ccccc1N1CC(C(=O)NCCC2=CCCCC2)CC1=O` (centres unmarked), -2.65%; to `CCNC(=S)Nc1cc(OCC)c(NC(=O)c2cccs2)cc1OCC`, 19.5%.
Take `CC(=O)N1CCN(C(=O)c2ccc(OC3CCN(CCc4ccccc4)CC3)cc2)CC1`: the “hERG current change (%, negative = inhibition) at 10uM” value is on record as 15.6%.
To `Cc1c(C(=O)Nc2ccc3c(c2)OCO3)sc2ncn(CC(=O)N3CC(C)CC(C)C3)c(=O)c12` (centres unmarked) belongs -6.16%; to `Cc1ccc2nc(Cl)c(CN(Cc3cccs3)C(=O)C3CC3)cc2c1`, 8.82%.
The result for `CCOC(=O)N(NC(=O)C(O)(c1ccccc1)c1ccccc1)c1ccccc1` reads 2.17%.
With `Cc1ccc(O)c(CNc2cccc3cccnc23)c1`, the “hERG current change (%, negative = inhibition) at 10uM” value was found to be 11.8%.
With `CN(C)CCSc1nnc2[nH]c3ccccc3c2n1.Cl`, the “hERG current change (%, negative = inhibition) at 10uM” value is given as -22.5%.
Turning to `CC1CCC2(CC1)NC(=O)N(CC(=O)Nc1ccc3[nH]c(=O)[nH]c3c1)C2=O` (centres unmarked), the “hERG current change (%, negative = inhibition) at 10uM” value is on record as 0.0265%.
To `COc1ccc(C(=O)N/C(=C\c2ccccc2)C(=O)NCc2cccnc2)cc1` belongs -70.8%; to `CCOC(=O)CSc1nnc(CSc2nc(C)cc(C)n2)n1Cc1ccco1`, 8.53%.
The result for `NC1=NC(=O)/C(=C/c2cn(CCC(=O)O)nc2-c2ccc(Cl)cc2)S1` reads 23.8%; that for `CC(=O)Nc1ccc(S(=O)(=O)Nc2ccc3c(c2)OCO3)cc1`, 17.2%.
To `Cc1ccc(C(C)C)c(OCC(O)CN2CCOCC2)c1` (centres unmarked) belongs -2.99%; to `COc1ccc(CCN=Cc2ccccc2O)cc1OC`, -2.77%; to `Cc1ccccc1C(=O)NC(=S)Nc1ccc(S(=O)(=O)N2CCOCC2)cc1`, -40%.
For the compound `CC1OC(NCCc2ccccc2)C(O)C(O)C1O` (centres unmarked), the “hERG current change (%, negative = inhibition) at 10uM” value is given as -0.396%.
To `Cc1cc(C)c2nc(-c3ccccn3)cc(C(=O)Nn3cnnc3)c2c1` belongs 8.45%; to `COc1cc(C(CC(=O)Nc2ccccn2)N2Cc3ccccc3C2=O)cc(OC)c1OC` (centres unmarked), -11.5%.
The result for `COC(=O)C1=C(C)N(C)C(=O)NC1c1cc2c(cc1[N+](=O)[O-])OCO2` (centres unmarked) reads 15.4%.

The record behind these values is article PMC4336329 (PLoS ONE, 2015).
